According to article PMC3418287:
Results are given in words; binding and its absence hold for the method and conditions named. In cells and extracts the contact can be indirect. Some binding calls cover weakened binding; strength is not graded here. For some assays here: Sequences can lack the tags named with a protein.

Protein sequences, listed by entry. Tags and fused reporters are not part of them.
UniProt Q15370: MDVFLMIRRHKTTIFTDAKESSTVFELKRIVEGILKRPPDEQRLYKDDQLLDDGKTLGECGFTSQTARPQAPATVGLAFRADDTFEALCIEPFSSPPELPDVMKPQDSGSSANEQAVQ

Legend:
[1] = target: StrepII-Myc-3xHA-PRAME (K562 stable line) (human) (UniProt P78395); test: co-IP; immunoblot of TAG-PRAME, TAG-OSGEP or TAG-LAGE3 complexes purified from K562 cells (Fig. 2, Fig. 5B); mock purification on wild type cells; TAG-OSGEP and TAG-LAGE3 also with stable knock-down of endogenous PRAME
[2] = target: T1, TAG-LAGE3 (K562 stable line) (human) (UniProt Q14657); test: as above
T1 sequence: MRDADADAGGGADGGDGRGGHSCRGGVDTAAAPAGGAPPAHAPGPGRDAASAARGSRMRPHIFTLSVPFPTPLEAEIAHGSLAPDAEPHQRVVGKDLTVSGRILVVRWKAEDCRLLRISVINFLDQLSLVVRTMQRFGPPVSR

[3] = target: T2, TAG-OSGEP (K562 stable line) (human) (UniProt Q9NPF4); test: as above
T2 sequence: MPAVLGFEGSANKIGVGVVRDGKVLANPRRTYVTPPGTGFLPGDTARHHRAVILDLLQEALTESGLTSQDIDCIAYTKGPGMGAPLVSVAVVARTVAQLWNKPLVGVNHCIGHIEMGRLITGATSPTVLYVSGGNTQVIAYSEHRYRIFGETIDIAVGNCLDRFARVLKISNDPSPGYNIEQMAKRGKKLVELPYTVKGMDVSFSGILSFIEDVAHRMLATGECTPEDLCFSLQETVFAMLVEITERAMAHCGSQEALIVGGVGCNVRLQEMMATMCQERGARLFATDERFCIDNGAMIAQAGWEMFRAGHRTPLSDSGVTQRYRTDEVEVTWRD

[4] = target: TAG-PRAME (transient, HEK293T) (human) (UniProt P78395); test: co-IP; transient transfection of 293T cells; TAG-PRAME (wild type or M2) precipitated with rabbit HA antibody; TTE-tagged proteins detected with BB2 (TY1 tag)
FLAG-PRAME (human) = FLAG-PRAME (human) (UniProt P78395); test: co-IP; Sf21 cells co-infected with baculoviruses for FLAG-PRAME and combinations of the four EKC subunits; anti-FLAG immunoprecipitation; lysates and eluates by western blotting

For “endogenous TPRKB (TP53RK-binding protein) (from UniProt Q9Y3C4 1-175)”, the binding [1] was “no binding” and the binding [2] was “binds”.

“endogenous PRAME (from UniProt P78395 1-509)” was tested, and the binding [3] was “binds”.

With “Elongin B (TCEB2 Transcription elongation factor B polypeptide 2) (from UniProt Q15370 1-118)” the binding [1] was “binds”.

B1: TTE-OSGEP (protein, UniProt Q9NPF4 1-335)
chain: MPAVLGFEGSANKIGVGVVRDGKVLANPRRTYVTPPGTGFLPGDTARHHRAVILDLLQEALTESGLTSQDIDCIAYTKGPGMGAPLVSVAVVARTVAQLWNKPLVGVNHCIGHIEMGRLITGATSPTVLYVSGGNTQVIAYSEHRYRIFGETIDIAVGNCLDRFARVLKISNDPSPGYNIEQMAKRGKKLVELPYTVKGMDVSFSGILSFIEDVAHRMLATGECTPEDLCFSLQETVFAMLVEITERAMAHCGSQEALIVGGVGCNVRLQEMMATMCQERGARLFATDERFCIDNGAMIAQAGWEMFRAGHRTPLSDSGVTQRYRTDEVEVTWRD
For B1, the binding [4] was “binds”.

B2: TTE-LAGE3 (protein, UniProt Q14657 1-143)
chain: MRDADADAGGGADGGDGRGGHSCRGGVDTAAAPAGGAPPAHAPGPGRDAASAARGSRMRPHIFTLSVPFPTPLEAEIAHGSLAPDAEPHQRVVGKDLTVSGRILVVRWKAEDCRLLRISVINFLDQLSLVVRTMQRFGPPVSR
B2 was tested, and the binding [4] was “binds”.

B3: c-Myc-OSGEP (protein, UniProt Q9NPF4 1-335)
chain: MPAVLGFEGSANKIGVGVVRDGKVLANPRRTYVTPPGTGFLPGDTARHHRAVILDLLQEALTESGLTSQDIDCIAYTKGPGMGAPLVSVAVVARTVAQLWNKPLVGVNHCIGHIEMGRLITGATSPTVLYVSGGNTQVIAYSEHRYRIFGETIDIAVGNCLDRFARVLKISNDPSPGYNIEQMAKRGKKLVELPYTVKGMDVSFSGILSFIEDVAHRMLATGECTPEDLCFSLQETVFAMLVEITERAMAHCGSQEALIVGGVGCNVRLQEMMATMCQERGARLFATDERFCIDNGAMIAQAGWEMFRAGHRTPLSDSGVTQRYRTDEVEVTWRD
In the case of B3, the binding (FLAG-PRAME (human)) is reported as “binds”.

B4: HA-LAGE3 (protein, UniProt Q14657 1-143)
chain: MRDADADAGGGADGGDGRGGHSCRGGVDTAAAPAGGAPPAHAPGPGRDAASAARGSRMRPHIFTLSVPFPTPLEAEIAHGSLAPDAEPHQRVVGKDLTVSGRILVVRWKAEDCRLLRISVINFLDQLSLVVRTMQRFGPPVSR
With B4 the binding (FLAG-PRAME (human)) was “binds”.
